This note sets out measurements from patent publication US20250179143A1, “SYSTEMS AND METHODS FOR CHAPERONE-MEDIATED LIGAND EXCHANGE ON MHC-I AND MHC-RELATED MOLECULES USING CHICKEN TAPBPR” (priority 2022, published 2025).

This assay concerns the target MR1 C262S loaded with acetyl-6-formylpterin (Ac-6-FP) (UniProt Q95460). Kind of assay: SPR; MR1 C262S/Ac-6-FP, 10 to 100 µM, over hTAPBPR^FLQ-biotin on a streptavidin chip; steady-state fit in the inset.

As a reminder, the Kd is the constant that tells how readily two partners part at equilibrium. A lower Kd goes with a tighter complex. For the substance “hTAPBPR^FLQ (S104F, K211L, R270Q) (from UniProt Q9BX59 22-405)”, the Kd was 48 µM.
